Test results reported in the supplement of paper PMC8728848.
The list shows a part of the results.

How the values were obtained:
Assay in all cases: glycan array binding signal (z-score within array); higher = stronger binding
Settings in all cases: glycan notation: IUPAC condensed, linker removed
[1] = molecular target: Fuc(a1-2)[GalNAc(a1-3)]Gal(b1-3)GlcNAc(b1-6)GalNAc
Procedure, shortened: (§1)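 The Consortium for Functional Glycomics database supplied 3228 glycan arrays, of which those lacking an available protein sequence were dropped. The binding signal, a within-array Z-score, was averaged across arrays of the same protein sequence and across linkers. Negative scores can be read as non-binding.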

[2] = molecular target: Fuc(a1-2)[GalNAc(a1-3)]Gal(b1-4)Glc
Procedure, shortened: as §1

[3] = molecular target: Fuc(a1-2)[GalNAc(a1-3)]Gal(b1-4)GlcNAc
Procedure, shortened: as §1

[4] = molecular target: Fuc(a1-2)[GalNAc(a1-3)]Gal(b1-4)GlcNAc(b1-2)Man
Procedure, shortened: as §1

[5] = molecular target: Fuc(a1-2)[GalNAc(a1-3)]Gal(b1-4)GlcNAc(b1-2)Man(a1-3)[Fuc(a1-2)[GalNAc(a1-3)]Gal(b1-4)GlcNAc(b1-2)Man(a1-6)]Man(b1-4)GlcNAc(b1-4)GlcNAc
Procedure, shortened: as §1

[6] = molecular target: Fuc(a1-2)[GalNAc(a1-3)]Gal(b1-4)GlcNAc(b1-2)Man(a1-3)[Fuc(a1-2)[GalNAc(a1-3)]Gal(b1-4)GlcNAc(b1-2)Man(a1-6)]Man(b1-4)GlcNAc(b1-4)[Fuc(a1-6)]GlcNAc
Procedure, shortened: as §1

[7] = molecular target: Fuc(a1-2)[GalNAc(a1-3)]Gal(b1-4)GlcNAc(b1-3)Gal(b1-4)GlcNAc
Procedure, shortened: as §1

[8] = molecular target: Fuc(a1-2)[GalNAc(a1-3)]Gal(b1-4)GlcNAc(b1-3)Gal(b1-4)GlcNAc(b1-3)Gal(b1-4)GlcNAc
Procedure, shortened: as §1

[9] = molecular target: Fuc(a1-2)[GalNAc(a1-3)]Gal(b1-4)GlcNAc(b1-3)GalNAc
Procedure, shortened: as §1

[10] = molecular target: Fuc(a1-2)[GalNAc(a1-3)]Gal(b1-4)GlcNAc(b1-3)[Fuc(a1-2)[GalNAc(a1-3)]Gal(b1-4)GlcNAc(b1-6)]GalNAc
Procedure, shortened: as §1

[11] = molecular target: Fuc(a1-2)[GalNAc(a1-3)]Gal(b1-4)GlcNAc(b1-6)GalNAc
Procedure, shortened: as §1

[12] = molecular target: Fuc(a1-2)[GalNAc(a1-3)]Gal(b1-4)[Fuc(a1-3)]GlcNAc
Procedure, shortened: as §1

[13] = molecular target: Fuc(a1-2)[GalNAc(a1-3)]Gal(b1-4)[Fuc(a1-3)]GlcNAc(b1-3)GalNAc
Procedure, shortened: as §1

[14] = molecular target: Fuc(a1-2)[GalNAc(a1-4)]Gal(b1-4)GlcNAc
Procedure, shortened: as §1

[15] = molecular target: Fuc(a1-2)[GalNAc(b1-3)]Gal
Procedure, shortened: as §1

Fuc(a1-3)GlcNAc = molecular target: Fuc(a1-3)GlcNAc
Procedure, shortened: as §1

[16] = molecular target: Fuc(a1-3)[Gal(b1-4)]Glc6S
Procedure, shortened: as §1

[17] = molecular target: Fuc(a1-3)[Gal(b1-4)]GlcNAc
Procedure, shortened: as §1

[18] = molecular target: Fuc(a1-3)[Gal(b1-4)]GlcNAc(b1-2)Man
Procedure, shortened: as §1

[19] = molecular target: Fuc(a1-3)[Gal(b1-4)]GlcNAc(b1-2)Man(a1-3)[Fuc(a1-3)[Gal(b1-4)]GlcNAc(b1-2)Man(a1-6)]Man(b1-4)GlcNAc(b1-4)GlcNAc
Procedure, shortened: as §1

[20] = molecular target: Fuc(a1-3)[Gal(b1-4)]GlcNAc(b1-2)Man(a1-3)[Fuc(a1-3)[Gal(b1-4)]GlcNAc(b1-2)Man(a1-6)]Man(b1-4)GlcNAc(b1-4)[Fuc(a1-6)]GlcNAc
Procedure, shortened: as §1

[21] = molecular target: Fuc(a1-3)[Gal(b1-4)]GlcNAc(b1-3)Gal(b1-3)[Fuc(a1-4)]GlcNAc
Procedure, shortened: as §1

[22] = molecular target: Fuc(a1-3)[Gal(b1-4)]GlcNAc(b1-3)GalNAc
Procedure, shortened: as §1

[23] = molecular target: Fuc(a1-3)[Gal(b1-4)]GlcNAc(b1-4)Gal(b1-4)[Fuc(a1-3)]GlcNAc
Procedure, shortened: as §1

[24] = molecular target: Fuc(a1-3)[Gal(b1-4)]GlcNAc(b1-4)Gal(b1-4)[Fuc(a1-3)]GlcNAc(b1-4)Gal(b1-4)[Fuc(a1-3)]GlcNAc
Procedure, shortened: as §1

[25] = molecular target: Fuc(a1-3)[Gal(b1-4)]GlcNAc(b1-6)GalNAc
Procedure, shortened: as §1

[26] = molecular target: Fuc(a1-3)[Gal(b1-4)]GlcNAc(b1-6)[Gal(b1-3)GlcNAc(b1-3)]Gal(b1-4)Glc
Procedure, shortened: as §1

[27] = molecular target: Fuc(a1-3)[Gal(b1-4)]GlcNAc6S
Procedure, shortened: as §1

[28] = molecular target: Fuc(a1-3)[Gal3S(b1-4)]Glc
Procedure, shortened: as §1

[29] = molecular target: Fuc(a1-3)[Gal3S(b1-4)]GlcNAc
Procedure, shortened: as §1

[30] = molecular target: Fuc(a1-3)[Gal3S(b1-4)]GlcNAc6S
Procedure, shortened: as §1

[31] = molecular target: Fuc(a1-3)[GalNAc(b1-4)]GlcNAc
Procedure, shortened: as §1

[32] = molecular target: Fuc(a1-3)[GalNAc(b1-4)]GlcNAc6S
Procedure, shortened: as §1

Fuc(a1-4)GlcNAc = molecular target: Fuc(a1-4)GlcNAc
Procedure, shortened: as §1

Fuc(b1-3)GlcNAc = molecular target: Fuc(b1-3)GlcNAc
Procedure, shortened: as §1

Gal(a1-2)Gal = molecular target: Gal(a1-2)Gal
Procedure, shortened: as §1

Gal(a1-3)Gal = molecular target: Gal(a1-3)Gal
Procedure, shortened: as §1

Gal(a1-3)Gal(b1-3)GlcNAc = molecular target: Gal(a1-3)Gal(b1-3)GlcNAc
Procedure, shortened: as §1

[33] = molecular target: Gal(a1-3)Gal(b1-3)GlcNAc(b1-2)Man
Procedure, shortened: as §1

[34] = molecular target: Gal(a1-3)Gal(b1-3)GlcNAc(b1-2)Man(a1-3)[Gal(a1-3)Gal(b1-3)GlcNAc(b1-2)Man(a1-6)]Man(b1-4)GlcNAc(b1-4)GlcNAc
Procedure, shortened: as §1

[35] = molecular target: Gal(a1-3)Gal(b1-3)GlcNAc(b1-3)GalNAc
Procedure, shortened: as §1

[36] = molecular target: Gal(a1-3)Gal(b1-3)GlcNAc(b1-6)GalNAc
Procedure, shortened: as §1

[37] = molecular target: Gal(a1-3)Gal(b1-3)[Fuc(a1-4)]GlcNAc(b1-2)Man(a1-3)[Gal(a1-3)Gal(b1-3)[Fuc(a1-4)]GlcNAc(b1-2)Man(a1-6)]Man(b1-4)GlcNAc(b1-4)GlcNAc
Procedure, shortened: as §1

Gal(a1-3)Gal(b1-4)Glc = molecular target: Gal(a1-3)Gal(b1-4)Glc
Procedure, shortened: as §1

Gal(a1-3)Gal(b1-4)GlcNAc = molecular target: Gal(a1-3)Gal(b1-4)GlcNAc
Procedure, shortened: as §1

B1: CBM13 2a (Mycobacterium tuberculosum), P64849 (protein)
chain: DGPVQLKSRLGDVCLDAPSGSWFSPLVINPCNGTDFQRWNLTDDRQVESVAFPGECVNIGNALWARLQPCVNWISQHWTVQPDGLVKSDLDACLTVLGGPDPGTWVSTRWCDPNAPDQQWDSVPLEHHHHHH
glycan array binding signal (z-score) [1]: -0.255 | glycan array binding signal (z-score) [2]: -0.227 | glycan array binding signal (z-score) [3]: -0.27 | glycan array binding signal (z-score) [4]: -0.311 | glycan array binding signal (z-score) [5]: -0.115 | glycan array binding signal (z-score) [6]: -0.121 | glycan array binding signal (z-score) [7]: -0.385 | glycan array binding signal (z-score) [8]: 1.95 | glycan array binding signal (z-score) [9]: -0.126 | glycan array binding signal (z-score) [10]: -0.133 | glycan array binding signal (z-score) [11]: -0.303 | glycan array binding signal (z-score) [12]: 0.434 | glycan array binding signal (z-score) [13]: -0.037 | glycan array binding signal (z-score) [14]: -0.467 | glycan array binding signal (z-score) [15]: -0.416 | glycan array binding signal (z-score) (Fuc(a1-3)GlcNAc): -0.168 | glycan array binding signal (z-score) [16]: -0.036 | glycan array binding signal (z-score) [17]: -0.325 | glycan array binding signal (z-score) [18]: -0.033 | glycan array binding signal (z-score) [19]: -0.052 | glycan array binding signal (z-score) [20]: -0.043 | glycan array binding signal (z-score) [21]: 0.154 | glycan array binding signal (z-score) [22]: -0.227 | glycan array binding signal (z-score) [23]: -0.173 | glycan array binding signal (z-score) [24]: -0.341 | glycan array binding signal (z-score) [25]: 0.13 | glycan array binding signal (z-score) [26]: -0.272 | glycan array binding signal (z-score) [27]: -0.247 | glycan array binding signal (z-score) [28]: -0.113 | glycan array binding signal (z-score) [29]: 0.314 | glycan array binding signal (z-score) [30]: -0.134 | glycan array binding signal (z-score) [31]: -0.31 | glycan array binding signal (z-score) [32]: -0.217 | glycan array binding signal (z-score) (Fuc(a1-4)GlcNAc): -0.322 | glycan array binding signal (z-score) (Fuc(b1-3)GlcNAc): -0.235 | glycan array binding signal (z-score) (Gal(a1-2)Gal): -0.158 | glycan array binding signal (z-score) (Gal(a1-3)Gal): -0.269 | glycan array binding signal (z-score) (Gal(a1-3)Gal(b1-3)GlcNAc): -0.106 | glycan array binding signal (z-score) [33]: -0.204 | glycan array binding signal (z-score) [34]: -0.07 | glycan array binding signal (z-score) [35]: -0.132 | glycan array binding signal (z-score) [36]: -0.286 | glycan array binding signal (z-score) [37]: 0.142 | glycan array binding signal (z-score) (Gal(a1-3)Gal(b1-4)Glc): -0.17 | glycan array binding signal (z-score) (Gal(a1-3)Gal(b1-4)GlcNAc): -0.203
